{
  "sequences": {"note": "Amino acid sequences for entries named in this document (tags omitted).", "UniProt Q8N3F8": "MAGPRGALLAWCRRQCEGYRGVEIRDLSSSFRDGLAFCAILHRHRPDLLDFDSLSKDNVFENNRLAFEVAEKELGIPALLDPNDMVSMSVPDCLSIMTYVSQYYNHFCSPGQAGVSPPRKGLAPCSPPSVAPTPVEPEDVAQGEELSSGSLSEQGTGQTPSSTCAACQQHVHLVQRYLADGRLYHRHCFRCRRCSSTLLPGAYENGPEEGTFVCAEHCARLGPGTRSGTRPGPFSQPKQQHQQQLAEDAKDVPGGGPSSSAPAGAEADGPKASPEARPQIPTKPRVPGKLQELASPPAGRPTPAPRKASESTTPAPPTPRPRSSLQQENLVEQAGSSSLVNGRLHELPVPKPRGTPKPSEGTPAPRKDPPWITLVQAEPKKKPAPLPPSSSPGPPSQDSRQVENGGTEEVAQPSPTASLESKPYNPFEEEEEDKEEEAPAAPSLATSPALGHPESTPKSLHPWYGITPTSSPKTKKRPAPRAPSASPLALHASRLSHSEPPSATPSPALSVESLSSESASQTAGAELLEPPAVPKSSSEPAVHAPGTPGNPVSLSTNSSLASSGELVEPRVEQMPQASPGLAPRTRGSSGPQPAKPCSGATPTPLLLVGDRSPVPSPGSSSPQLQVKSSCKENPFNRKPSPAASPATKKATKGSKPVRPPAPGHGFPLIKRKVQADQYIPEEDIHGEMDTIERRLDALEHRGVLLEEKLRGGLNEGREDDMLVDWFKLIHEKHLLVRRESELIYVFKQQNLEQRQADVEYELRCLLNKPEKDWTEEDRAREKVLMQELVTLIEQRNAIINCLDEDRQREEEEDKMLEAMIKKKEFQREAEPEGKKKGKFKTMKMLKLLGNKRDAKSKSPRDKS", "UniProt Q9UNF0": "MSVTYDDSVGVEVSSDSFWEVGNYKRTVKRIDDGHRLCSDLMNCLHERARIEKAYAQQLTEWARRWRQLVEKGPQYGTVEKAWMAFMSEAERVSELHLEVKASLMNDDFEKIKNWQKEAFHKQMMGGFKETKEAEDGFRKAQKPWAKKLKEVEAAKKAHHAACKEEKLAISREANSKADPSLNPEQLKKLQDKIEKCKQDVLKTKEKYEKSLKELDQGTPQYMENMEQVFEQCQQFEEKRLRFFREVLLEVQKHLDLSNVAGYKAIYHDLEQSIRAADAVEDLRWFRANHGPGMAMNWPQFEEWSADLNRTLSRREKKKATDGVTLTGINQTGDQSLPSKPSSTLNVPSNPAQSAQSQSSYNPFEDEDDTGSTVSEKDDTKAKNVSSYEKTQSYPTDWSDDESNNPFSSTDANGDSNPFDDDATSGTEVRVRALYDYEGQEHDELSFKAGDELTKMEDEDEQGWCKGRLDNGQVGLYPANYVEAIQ"},
  "source": "paper PMC7511005",
  "binders": {"B1": {"name": "Eps15 Homology Domain Protein 4 (EHD4), endogenous in HeLa cells (protein, UniProt Q9H223 1-541)", "chain": "MFSWMGRQAGGRERAGGADAVQTVTGGLRSLYLRKVLPLEEAYRFHEFHSPALEDADFENKPMILLVGQYSTGKTTFIRYLLEQDFPGMRIGPEPTTDSFIAVMYGETEGSTPGNALVVDPKKPFRKLSRFGNAFLNRFMCSQLPNQVLKSISVIDSPGILSGEKQRISRGYDFCQVLQWFAERVDRIILLFDAHKLDISDEFSEAIKAFRGQDDKIRVVLNKADQVDTQQLMRVYGALMWSLGKVINTPEVLRVYIGSFWAQPLQNTDNRRLFEAEAQDLFRDIQSLPQKAAVRKLNDLIKRARLAKVHAYIISYLKKEMPSVFGKENKKRELISRLPEIYIQLQREYQISAGDFPEVKAMQEQLENYDFTKFHSLKPKLIEAVDNMLSNKISPLMNLISQEETSTPTQLVQGGAFDGTTEGPFNQGYGEGAKEGADEEEWVVAKDKPVYDELFYTLSPINGKISGVNAKKEMVTSKLPNSVLGKIWKLADCDCDGMLDEEEFALAKHLIKIKLDGYELPSSLPPHLVPPSHRKSLPKAD"}, "B2": {"name": "EHD1, yeast two-hybrid fusion (protein, UniProt Q9H4M9 1-534)", "chain": "MFSWVSKDARRKKEPELFQTVAEGLRQLYAQKLLPLEEHYRFHEFHSPALEDADFDNKPMVLLVGQYSTGKTTFIRHLIEQDFPGMRIGPEPTTDSFIAVMHGPTEGVVPGNALVVDPRRPFRKLNAFGNAFLNRFMCAQLPNPVLDSISIIDTPGILSGEKQRISRGYDFAAVLEWFAERVDRIILLFDAHKLDISDEFSEVIKALKNHEDKIRVVLNKADQIETQQLMRVYGALMWSLGKIINTPEVVRVYIGSFWSHPLLIPDNRKLFEAEEQDLFKDIQSLPRNAALRKLNDLIKRARLAKVHAYIISSLKKEMPNVFGKESKKKELVNNLGEIYQKIEREHQISPGDFPSLRKMQELLQTQDFSKFQALKPKLLDTVDDMLANDIARLMVMVRQEESLMPSQVVKGGAFDGTMNGPFGHGYGEGAGEGIDDVEWVVGKDKPTYDEIFYTLSPVNGKITGANAKKEMVKSKLPNTVLGKIWKLADVDKDGLLDDEEFALANHLIKVKLEGHELPADLPPHLVPPSKRRHE"}, "B3": {"name": "Rabenosyn-5, endogenous in NIH3T3 cells (protein, UniProt Q80Y56 1-783)", "chain": "MASLDDPGEVREGFLCPLCLKDLQSFYQLQSHYEEEHLEDRDVKGQIKNLVQKARKAKNKLLKREGDDRVEPGTQGYESFSYGGVDPYMWEPQELGAMRSHLSDFKKHRAARIDHYVVEVNKLIIRLEKLTAFDRTNTETSKIRAIEKSVVPWVNDQDVPFCPDCGNKFSIRNRRHHCRLCGSIMCKKCMELIGLPLAHKLTSASKDSLSTHTSPSQSPNSVHGSRRGSISSMSSVSSVLDEKDDDRIRCCTHCKDKLLKREQQMDEKEHTPDIVKLYEKLRLCMEKVDQKAPEYIRMAASLNAGETTYNLEHANDLRVEVQKVYELIDALSKKILTLGLNQDPSPHPNTLRLQRMIRYSATLFVQEKLLGLMSLPTKEQFEELKKKRKQDLEQKRTVERQAALESRRKLEERQSGLASHTANGDVRSLRGIPPPLRKAEGWLPLSEGQGQSEDPDPLLQQIYNITSFIRQAKAAGRTDEVRTLQENLRQLQDEYDQQQTEKAIELSRKQAEEEELQREQLQMLRKRELEREQEQFLAASLQTRTRVLELREVIPFQLEASRGPHIDLSYSLDQDSSPVQSSTAPDILTPGSALAPMHLWSGPPALGQETLPQSTMSQQSDKASLNPFDEDDLSSPTEGAISPAAVEAFLGPPAAVTKEYNPFEEDAEEEEVAELGAGNPFTDPDSPAPNPFDEDDGPRPASPAAPGNPFEECPSTNPFEVDSDSGMEAEEHIEEELLLQQIDNIKAYIFDAKQCGRMDEVEVLTENLRELKCTLAKQKGAPN"}, "B4": {"name": "EHD4 SS522AD, yeast two-hybrid fusion (protein, UniProt Q9H223 1-541)", "chain": "B1 chain with S522A, S523D"}, "B5": {"name": "EHD4 S522A, yeast two-hybrid fusion (protein, UniProt Q9H223 1-541)", "chain": "B1 chain with S522A"}, "B6": {"name": "EHD4 S523D, yeast two-hybrid fusion (protein, UniProt Q9H223 1-541)", "chain": "B1 chain with S523D"}},
  "key": {"[1]": {"biological_target": "T1, Eps15 Homology Domain Protein 1 (EHD1), endogenous in HeLa cells (human (endogenous in HeLa)) (UniProt Q9H4M9)", "T1 sequence": "B2 chain", "assay": "co-IP; endogenous proteins in HeLa lysate (50 mM Tris pH 7.4, 100 mM NaCl, 0.5% Triton X-100); rabbit anti-EHD1 overnight at 4°C, Protein G Sepharose; blot with anti-EHD4, stripped and reblotted with anti-EHD1; beads-only control"}, "[2]": {"biological_target": "MICAL-L1, yeast two-hybrid fusion (UniProt Q8N3F8)", "assay": "two-hybrid; AH109 yeast co-transformed with pGADT7 and pGBKT7 fusions; growth on -His plates, 30°C, 72 h"}, "[3]": {"biological_target": "T2, EHD1 aa1-309, yeast two-hybrid fusion (UniProt Q9H4M9)", "T2 sequence": "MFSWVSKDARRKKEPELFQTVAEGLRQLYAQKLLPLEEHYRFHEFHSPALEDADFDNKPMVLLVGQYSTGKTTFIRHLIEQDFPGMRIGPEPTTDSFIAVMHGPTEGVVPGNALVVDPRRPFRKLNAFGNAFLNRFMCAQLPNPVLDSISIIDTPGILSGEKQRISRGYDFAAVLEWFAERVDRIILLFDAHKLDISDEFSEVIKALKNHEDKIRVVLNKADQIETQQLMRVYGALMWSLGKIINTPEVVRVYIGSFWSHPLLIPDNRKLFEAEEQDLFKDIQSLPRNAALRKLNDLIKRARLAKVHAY", "assay": "two-hybrid; AH109 yeast co-transformed with pGADT7 and pGBKT7 fusions; growth on -His plates, 30°C, 72 h"}, "[4]": {"biological_target": "T3, EHD1 V203P, yeast two-hybrid fusion (UniProt Q9H4M9)", "T3 sequence": "B2 chain with V203P", "assay": "two-hybrid; AH109 yeast co-transformed with pGADT7 and pGBKT7 fusions; growth on -His plates, 30°C, 72 h"}, "[5]": {"biological_target": "T4, EHD1 aa1-199, yeast two-hybrid fusion (UniProt Q9H4M9)", "T4 sequence": "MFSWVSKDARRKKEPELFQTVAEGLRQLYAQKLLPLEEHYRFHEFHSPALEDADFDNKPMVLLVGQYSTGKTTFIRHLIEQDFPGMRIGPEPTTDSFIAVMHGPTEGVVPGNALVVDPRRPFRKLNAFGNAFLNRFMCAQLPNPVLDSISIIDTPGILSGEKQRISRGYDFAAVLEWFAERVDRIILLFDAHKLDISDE", "assay": "two-hybrid; AH109 yeast co-transformed with pGADT7 and pGBKT7 fusions; growth on -His plates, 30°C, 72 h"}, "[6]": {"biological_target": "Syndapin2, yeast two-hybrid fusion (UniProt Q9UNF0)", "assay": "two-hybrid; AH109 yeast co-transformed with pGADT7 and pGBKT7 fusions; growth on -His plates, 30°C, 72 h"}, "[7]": {"biological_target": "T5, EHD1, yeast two-hybrid fusion (UniProt Q9H4M9)", "T5 sequence": "B2 chain", "assay": "two-hybrid; AH109 yeast co-transformed with pGADT7 and pGBKT7 fusions; growth on -His plates, 30°C, 72 h"}, "[8]": {"biological_target": "T6, EHD1 aa1-439, yeast two-hybrid fusion (UniProt Q9H4M9)", "T6 sequence": "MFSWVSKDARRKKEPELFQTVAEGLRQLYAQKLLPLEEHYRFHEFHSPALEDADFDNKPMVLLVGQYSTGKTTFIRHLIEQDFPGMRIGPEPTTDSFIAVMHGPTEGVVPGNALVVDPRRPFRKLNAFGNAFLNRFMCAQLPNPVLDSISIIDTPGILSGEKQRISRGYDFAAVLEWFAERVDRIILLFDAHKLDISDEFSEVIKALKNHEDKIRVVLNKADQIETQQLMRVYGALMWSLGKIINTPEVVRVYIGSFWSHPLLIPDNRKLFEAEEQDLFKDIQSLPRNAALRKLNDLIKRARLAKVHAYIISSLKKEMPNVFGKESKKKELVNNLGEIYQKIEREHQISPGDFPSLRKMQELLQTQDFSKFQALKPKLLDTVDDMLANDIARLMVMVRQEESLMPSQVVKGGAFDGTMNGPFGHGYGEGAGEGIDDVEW", "assay": "two-hybrid; AH109 yeast co-transformed with pGADT7 and pGBKT7 fusions; growth on -His plates, 30°C, 72 h"}, "[9]": {"biological_target": "T7, EHD1, endogenous in NIH3T3 cells (mouse (endogenous in NIH3T3)) (UniProt Q9WVK4)", "T7 sequence": "B2 chain with P350S, V408A, V526I", "assay": "co-IP; endogenous proteins in lysates of NIH3T3 parental cells and CRISPR/Cas9 EHD4 knock-out cells; anti-EHD1 coupled beads; blot with anti-Rabenosyn-5 and anti-EHD1; beads-only control"}},
  "note": "Substitutions are numbered along the chain they refer to. In names and notes the source's numbering stands. These are yes or no findings as the source states them, for the method shown. For part of these data: Binding seen in cells or lysates may run through a third protein. Some results given as binding are weak or reduced against the parent protein; the word gives no strength. For part of these data: Sequences can lack the tags named with a protein.",
  "data": [
    {"binder": "B1", "values": [
      {"measurement": "binding", "setting": "[1]", "value": "binds"}
    ]},
    {"binder": "B2", "values": [
      {"measurement": "binding", "setting": "[2]", "value": "binds"},
      {"measurement": "binding", "setting": "[3]", "value": "no binding"},
      {"measurement": "binding", "setting": "[4]", "value": "binds"},
      {"measurement": "binding", "setting": "[5]", "value": "no binding"},
      {"measurement": "binding", "setting": "[6]", "value": "binds"},
      {"measurement": "binding", "setting": "[7]", "value": "binds"},
      {"measurement": "binding", "setting": "[8]", "value": "binds"}
    ]},
    {"binder": "B3", "values": [
      {"measurement": "binding", "setting": "[9]", "value": "binds"}
    ]},
    {"binder": "B4", "values": [
      {"measurement": "binding", "setting": "[2]", "value": "no binding"}
    ]},
    {"binder": "B5", "values": [
      {"measurement": "binding", "setting": "[2]", "value": "no binding"}
    ]},
    {"binder": "B6", "values": [
      {"measurement": "binding", "setting": "[2]", "value": "no binding"}
    ]}
  ]
}
